# Laboratory results from PubChem BioAssay AID488969 (Vanderbilt High Throughput Screening Facility, 2010).
# Over roughly 110,000 compounds, “z-score” has its median near -0.1; the highest 2% begin near 2. The list shows a part of the results.
# Molecular target: Metabotropic glutamate receptor 8 (Rattus norvegicus) (UniProt P70579)
# Test: mGluR8 Gi/Go-coupled signaling modulation – cell-based, rat, thallium flux, HTS, primary screen (AID 488969)
# Conditions: HEK293 rat mGluR8, GIRK (G protein-gated inwardly rectifying potassium channel) thallium flux, FluoZin2; at 10 µM; stronger effect = higher value; submaximal glutamate (EC20) added with thallium
# UniProt P70579, sequence (P70579 whole entry, looked up): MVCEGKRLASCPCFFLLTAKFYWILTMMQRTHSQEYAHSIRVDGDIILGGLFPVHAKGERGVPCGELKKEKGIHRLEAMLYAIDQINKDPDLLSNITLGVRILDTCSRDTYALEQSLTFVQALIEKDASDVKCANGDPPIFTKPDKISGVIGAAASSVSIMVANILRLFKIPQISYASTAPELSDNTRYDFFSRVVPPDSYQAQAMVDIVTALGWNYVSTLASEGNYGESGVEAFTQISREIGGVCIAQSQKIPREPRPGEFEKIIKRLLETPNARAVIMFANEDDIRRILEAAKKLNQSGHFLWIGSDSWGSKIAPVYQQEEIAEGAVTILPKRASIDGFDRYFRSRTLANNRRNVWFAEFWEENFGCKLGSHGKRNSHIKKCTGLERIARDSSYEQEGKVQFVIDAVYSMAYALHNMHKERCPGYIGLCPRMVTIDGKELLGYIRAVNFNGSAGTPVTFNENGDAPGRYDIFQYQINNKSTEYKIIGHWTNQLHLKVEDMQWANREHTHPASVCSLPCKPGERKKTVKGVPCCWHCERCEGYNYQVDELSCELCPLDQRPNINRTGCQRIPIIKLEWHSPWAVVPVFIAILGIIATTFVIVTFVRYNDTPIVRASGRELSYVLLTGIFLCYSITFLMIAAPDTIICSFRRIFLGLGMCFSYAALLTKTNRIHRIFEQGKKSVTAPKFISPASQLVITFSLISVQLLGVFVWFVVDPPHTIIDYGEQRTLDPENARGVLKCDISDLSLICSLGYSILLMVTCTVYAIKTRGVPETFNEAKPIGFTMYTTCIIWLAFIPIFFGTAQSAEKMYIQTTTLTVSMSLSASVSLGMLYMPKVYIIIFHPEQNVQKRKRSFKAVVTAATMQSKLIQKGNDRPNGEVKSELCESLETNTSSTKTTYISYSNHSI
row,Compound,z-score
1,C=C(C)COc1ccc2c(CC)cc(=O)oc2c1C,-0.246
2,O=C(NCC(c1ccc(F)cc1)N1CCOCC1)c1ccc(Br)o1 (stereo unspecified),0.0617
3,Cc1c(C(=O)C(=O)N2CCCc3ccccc32)c2ccccc2n1C,-0.375
4,COc1ccc(NCc2nnc(SCC(=O)Nc3nc(-c4ccccc4)cs3)n2-c2ccccc2)cc1,-0.141
5,CCN1C(=O)CS/C1=N\c1nccs1,-0.579
6,COc1cccc(-n2c(SC3CCOC3=O)nc3ccccc3c2=O)c1 (stereo unspecified),-0.583
7,CCCCS(=O)Cc1ccccc1 (stereo unspecified),-0.148
8,O=c1nc2c(O)cccn2c2c1c(=O)[nH]c1ccccc12,-0.904
9,COc1ccccc1-c1ccc(NC2CCCC2)nn1,-0.624
10,Cn1c(SCC(=O)NCc2cccs2)nnc1-c1cccs1,0.0897
11,Nc1nc2ccc(-c3nc4ccccc4o3)cc2s1,-0.112
12,O=C(CSc1nc2ccccc2n1Cc1ccccc1)N/N=C/c1ccco1,-0.329
13,Cc1ccnc(NC(=O)CCC(=O)N(CC(=O)NC2CCCCC2)c2cccc(C)c2C)c1,-0.622
14,Cc1cc(=O)[nH]c(SCC(=O)Nc2nc(-c3ccccc3)c(-c3ccccc3)o2)n1,-1.38
15,O=C1OC(c2ccccc2)/C(=C(/O)c2ccccc2)C1=O (stereo unspecified),-2.65
16,Cn1c(-c2sc(=S)n(-c3ccccc3)c2N)nc2ccccc21,0.156

row,Compound,z-score
1,CCCCC(=O)N1CC2(C)CN(C(=O)CCCC)CC(C)(C1)C2=O,0.492
2,COc1ccc(-c2nc(C#N)c(N3CCCCCC3)o2)cc1OC,-0.645
3,Cc1sc(NC(=O)CSc2nnc(CCNC(=O)c3cccs3)n2C)nc1-c1ccccc1,-0.167
4,C=CCOc1c(CNc2cccc(C(=O)O)c2)cccc1OCC,-0.167
5,CCN(CC(=O)NC(C)(C)C)C(=O)CCl,-0.355
6,CCOC(=O)C(=Cc1ccc(-c2ccsc2C(=O)OC)o1)C(=O)OCC,-0.148
7,CCn1c(SCC(=O)NCC(=O)Nc2ccc(F)cc2)nnc1-c1ccncc1,-0.775
8,O=C(NC1CCCCCC1)c1cc(S(=O)(=O)N2CCOCC2)ccc1N1CCCCC1,-0.356
9,COCCN1C(=O)c2ccccc2C(C(=O)NCCN(C)C)C1c1ccc(F)cc1 (stereo unspecified),0.0583
10,CN(C)CC(=O)Nc1nc(-c2ccccc2)cs1,0.193
11,COc1ccc(C)cc1NC(=O)C(OC(=O)CNC(=O)c1ccc(Oc2ccccc2)cc1)c1ccccc1 (stereo unspecified),0.0343
12,COc1ccc(N(CN2C(=O)C3CC=CCC3C2=O)C(=O)c2ccco2)cc1 (stereo unspecified),-0.221
13,C=CCc1ccccc1OCC(O)CN1CCN(c2ccccc2OC)CC1 (stereo unspecified),-0.754
14,N#C/C(=C\Nc1ccc2c(c1)OCCO2)c1nc2ccccc2[nH]1,-0.254
15,O=C(CCCc1nc(-c2ccc(Cl)cc2)no1)Nc1cccnc1,1.77
